In the supplement of paper PMC9433436:
± gives the standard deviation of the averaged measurements. The full ranking holds about 4,100 sequences; the median of “relative kcat/Km (krel) vs genomic leader AAAGAU” is about 1.7, and the highest 2% start at about 6.5. This is a selection; strong and weak results do not stand in their true shares.

Molecular target: T1, E. coli RNase P holoenzyme (M1 P RNA + rnpA protein) (UniProt P0A7Y8)
T1 sequence: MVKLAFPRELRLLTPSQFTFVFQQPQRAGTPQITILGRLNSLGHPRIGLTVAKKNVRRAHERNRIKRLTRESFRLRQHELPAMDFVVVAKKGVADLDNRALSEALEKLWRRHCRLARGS
Experiment: relative kcat/Km (krel) vs genomic leader AAAGAU (relative (reference leader = 1)); higher = faster RNase P cleavage
Method: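 HTS-Kin: a pool of ptRNA-Met (21C construct) with all 4096 combinations of 5' leader nucleotides N(-6) to N(-1) was processed in vitro by E. coli RNase P (P RNA + rnpA/C5 protein) under multiple-turnover conditions at 37 C, pH 8, 17.5 mM MgCl2. Residual substrate was Illumina-sequenced at several fractions reacted, and relative kcat/Km (krel) was computed by internal competition kinetics, calibrated to the genomic leader (AAAGAU = 1). The listed hexamer is the varied N(-6)..N(-1) leader (DNA letters), and it sits between a fixed 5' stem-loop flank (GCAUGCACGAAAGUGCGUGCUAUGAA) and the mature tRNA-Met starting GGCUACGUAGCUCAGUUGG. Two technical replicates are averaged.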

[1] = fraction of substrate reacted: ~9-10% (9.79% repeat 1, 9.1% repeat 2)
[2] = fraction of substrate reacted: ~13-16% (15.68% repeat 1, 13.17% repeat 2)
[3] = fraction of substrate reacted: ~26-29% (28.66% repeat 1, 26.4% repeat 2)

Sequence	relative kcat/Km [1]	relative kcat/Km [2]	relative kcat/Km [3]
TCACCC	2.5 ± 0.66	3.06 ± 1.3	3.96 ± 1.5
AGTGTC	0.63 ± 0.6	0.82 ± 0.16	0.814 ± 0.22
TATGCG	–	0.187 ± 0.093	1.16 ± 0.3
GTAGAC	2.16 ± 1	2.75 ± 0.35	3.99 ± 1.2
TACTGG	–	–	0.667 ± 0.43
GCATCG	–	–	0.878 ± 0.094
AGTTCC	3.25 ± 2.4	3.05 ± 0.096	4.18 ± 1.5
GTCTGT	–	–	2.58 ± 2
GTATTC	3.21 ± 1.9	2.98 ± 0.079	4.2 ± 1.5
GAGGAG	–	–	0.297 ± 0.24
AGTTTC	2.42 ± 0.73	3 ± 0.13	4.38 ± 1.6
CGTATC	1.67 ± 0.75	2.89 ± 0.43	3.65 ± 1.5
CTGATC	2.07 ± 0.34	1.61 ± 0.62	2.15 ± 0.27
GACGAC	3.35 ± 0.49	5.87 ± 1.6	–
GGGCAT	1.03 ± 0.31	1.51 ± 0.12	2.18 ± 0.97
GGATCC	1.23 ± 0.24	1.07 ± 0.62	1.62 ± 0.37
AAGCGG	0.584 ± 0.11	0.42 ± 0.41	0.735 ± 0.021
CATGTT	0.204 ± 0.0037	0.575 ± 0.33	0.884 ± 0.32
TAAGAC	1.72 ± 0.2	2.71 ± 1.3	3.73 ± 1.8
GACCAT	3.62 ± 2.1	3.91 ± 0.13	5.96 ± 1.9
GCATTC	1.27 ± 0.44	1.91 ± 0.57	3.19 ± 1.1
TGGTCC	0.659 ± 0.25	1.17 ± 1.2	1.18 ± 0.53
ATGCAT	0.782 ± 0.021	1.19 ± 0.42	2.14 ± 0.41
GGCTGA	1.83 ± 1.7	1.94 ± 0.094	2.86 ± 0.5
TGTTAC	3.59 ± 1.3	5.21 ± 1.2	8.19 ± 3.8

Sequence	relative kcat/Km [1]	relative kcat/Km [2]	relative kcat/Km [3]
GTGCTA	–	0.879 ± 0.58	1.04 ± 0.27
TCCTGA	3.23 ± 0.83	4.19 ± 0.42	6.6 ± 2.5
GAATCA	1.63 ± 1.6	1.59 ± 0.061	2.25 ± 0.76
CAGAGA	1.07 ± 0.6	1.55 ± 0.75	3.62 ± 1.4
AACCAT	2.62 ± 1.1	2.62 ± 0.3	4.77 ± 2
ACCCTG	–	–	1.17 ± 0.53
CATCTC	1.8 ± 0.31	2.05 ± 0.32	3.05 ± 1.3
CGTCAG	0.776 ± 0.25	1.34 ± 0.28	3.11 ± 0.5
ATCGTG	–	–	1.3 ± 0.35
ATCGCA	3.36 ± 1	4.58 ± 0.2	6.35 ± 2.8
TGGGCA	0.827 ± 0.12	0.859 ± 0.18	1.15 ± 0.75
ATTTAG	–	2.526 ± 0.01	3.82 ± 0.68
CGGCTA	1.21 ± 0.35	1.11 ± 0.062	0.879 ± 0.1
ATGTAG	1.92 ± 1.1	1.43 ± 0.22	2.74 ± 0.76
TACAAG	1.6 ± 0.23	2.38 ± 0.42	4.49 ± 1.9
TGGCAA	–	0.681 ± 0.35	0.838 ± 0.48
ATGACA	1.94 ± 1.6	1.85 ± 0.61	2.06 ± 0.28
AAAAAC	1.05 ± 0.17	1.97 ± 1	1.67 ± 0.46
ACATTT	2.32 ± 1.2	2.97 ± 0.19	4.45 ± 1.8
AGTCCG	1.69 ± 1.2	0.756 ± 0.66	2.06 ± 0.97
GTAGGA	0.316 ± 0.27	1.2 ± 0.63	–
TCCCCC	2.31 ± 1.4	3 ± 0.6	3.79 ± 1.1
TCGTCT	3 ± 0.94	2.99 ± 1.4	4.35 ± 1.2
TGGCTA	0.633 ± 0.28	1.26 ± 0.15	1.41 ± 0.82
TAAGTA	1.56 ± 1.1	1.45 ± 0.65	1.48 ± 0.18
